# The supplement of paper PMC8728848
# The list shows a part of the results.
# What was measured:
# Experiment in all cases: glycan array binding signal (z-score within array); higher = stronger binding
# Details in all cases: glycan notation: IUPAC condensed, linker removed
# [1] = target: Gal(b1-3)GlcNAc(b1-6)GalNAc
# Procedure, shortened: (§1)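 Glycan array binding is given as a within-array Z-score, which can be read as non-binding when negative. The arrays, 3228 of them, came from the Consortium for Functional Glycomics database and were retained only where the protein sequence was available. Z-scores were averaged across arrays of the same protein sequence at different concentrations or buffers and across linkers.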
# [2] = target: Gal(b1-3)GlcNAc(b1-6)[Gal(b1-3)]GalNAc
# Procedure, shortened: as §1
# [3] = target: Gal(b1-3)GlcNAc6S
# Procedure, shortened: as §1
# [4] = target: Gal(b1-3)[Fuc(a1-4)]GlcNAc
# Procedure, shortened: as §1
# [5] = target: Gal(b1-3)[Fuc(a1-4)]GlcNAc(b1-2)Man
# Procedure, shortened: as §1
# [6] = target: Gal(b1-3)[Fuc(a1-4)]GlcNAc(b1-2)Man(a1-3)[Gal(b1-3)[Fuc(a1-4)]GlcNAc(b1-2)Man(a1-6)]Man(b1-4)GlcNAc(b1-4)[Fuc(a1-6)]GlcNAc
# Procedure, shortened: as §1
# [7] = target: Gal(b1-3)[Fuc(a1-4)]GlcNAc(b1-3)Gal(b1-3)[Fuc(a1-4)]GlcNAc
# Procedure, shortened: as §1
# [8] = target: Gal(b1-3)[Fuc(a1-4)]GlcNAc(b1-3)Gal(b1-4)[Fuc(a1-3)]GlcNAc
# Procedure, shortened: as §1
# [9] = target: Gal(b1-3)[Fuc(a1-4)]GlcNAc(b1-6)GalNAc
# Procedure, shortened: as §1
# [10] = target: Gal(b1-3)[GlcNAc(b1-6)]GalNAc
# Procedure, shortened: as §1
# [11] = target: Gal(b1-3)[Neu5Ac(a2-6)]GalNAc
# Procedure, shortened: as §1
# [12] = target: Gal(b1-3)[Neu5Ac(a2-6)]GlcNAc(b1-4)Gal(b1-4)Glc
# Procedure, shortened: as §1
# [13] = target: Gal(b1-3)[Neu5Ac(b2-6)]GalNAc
# Procedure, shortened: as §1
# [14] = target: Gal(b1-4)Gal
# Procedure, shortened: as §1
# [15] = target: Gal(b1-4)GalNAc(a1-3)[Fuc(a1-2)]Gal(b1-4)GlcNAc
# Procedure, shortened: as §1
# [16] = target: Gal(b1-4)GalNAc(b1-3)[Fuc(a1-2)]Gal(b1-4)GlcNAc
# Procedure, shortened: as §1
# [17] = target: Gal(b1-4)Glc
# Procedure, shortened: as §1
# [18] = target: Gal(b1-4)Glc6S
# Procedure, shortened: as §1
# [19] = target: Gal(b1-4)GlcNAc
# Procedure, shortened: as §1
# [20] = target: Gal(b1-4)GlcNAc(a1-6)Gal(b1-4)GlcNAc
# Procedure, shortened: as §1
# [21] = target: Gal(b1-4)GlcNAc(b1-2)Man
# Procedure, shortened: as §1
# [22] = target: Gal(b1-4)GlcNAc(b1-2)Man(a1-3)Man(b1-4)GlcNAc(b1-4)GlcNAc
# Procedure, shortened: as §1
# [23] = target: Gal(b1-4)GlcNAc(b1-2)Man(a1-3)[Gal(b1-4)GlcNAc(b1-2)Man(a1-6)]Man(b1-4)GlcNAc(b1-4)GlcNAc
# Procedure, shortened: as §1
# [24] = target: Gal(b1-4)GlcNAc(b1-2)Man(a1-3)[Gal(b1-4)GlcNAc(b1-2)Man(a1-6)]Man(b1-4)GlcNAc(b1-4)[Fuc(a1-6)]GlcNAc
# Procedure, shortened: as §1
# [25] = target: Gal(b1-4)GlcNAc(b1-2)Man(a1-3)[Gal(b1-4)GlcNAc(b1-2)Man(a1-6)][Gal(b1-4)GlcNAc(b1-4)]Man(b1-4)GlcNAc(b1-4)[Fuc(a1-6)]GlcNAc
# Procedure, shortened: as §1
# [26] = target: Gal(b1-4)GlcNAc(b1-2)Man(a1-3)[Gal(b1-4)GlcNAc(b1-2)Man(a1-6)][GlcNAc(b1-4)]Man(b1-4)GlcNAc(b1-4)[Fuc(a1-6)]GlcNAc
# Procedure, shortened: as §1
# [27] = target: Gal(b1-4)GlcNAc(b1-2)Man(a1-3)[GlcNAc(b1-2)Man(a1-6)]Man(b1-4)GlcNAc(b1-4)GlcNAc
# Procedure, shortened: as §1
# [28] = target: Gal(b1-4)GlcNAc(b1-2)Man(a1-3)[GlcNAc(b1-4)][Gal(b1-4)GlcNAc(b1-2)Man(a1-6)]Man(b1-4)GlcNAc(b1-4)GlcNAc
# Procedure, shortened: as §1
# [29] = target: Gal(b1-4)GlcNAc(b1-2)Man(a1-3)[Man(a1-6)]Man(b1-4)GlcNAc(b1-4)GlcNAc
# Procedure, shortened: as §1
# [30] = target: Gal(b1-4)GlcNAc(b1-2)Man(a1-6)Man(b1-4)GlcNAc(b1-4)GlcNAc
# Procedure, shortened: as §1
# [31] = target: Gal(b1-4)GlcNAc(b1-2)Man(a1-6)[GlcNAc(b1-2)Man(a1-3)]Man(b1-4)GlcNAc(b1-4)GlcNAc
# Procedure, shortened: as §1
# [32] = target: Gal(b1-4)GlcNAc(b1-2)Man(a1-6)[Man(a1-3)]Man(b1-4)GlcNAc(b1-4)GlcNAc
# Procedure, shortened: as §1
# [33] = target: Gal(b1-4)GlcNAc(b1-2)[Gal(b1-4)GlcNAc(b1-4)]Man(a1-3)[Gal(b1-4)GlcNAc(b1-2)Man(a1-6)]Man(b1-4)GlcNAc(b1-4)GlcNAc
# Procedure, shortened: as §1
# [34] = target: Gal(b1-4)GlcNAc(b1-2)[Gal(b1-4)GlcNAc(b1-4)]Man(a1-3)[Gal(b1-4)GlcNAc(b1-2)[Gal(b1-4)GlcNAc(b1-6)]Man(a1-6)]Man(b1-4)GlcNAc(b1-4)GlcNAc
# Procedure, shortened: as §1
# [35] = target: Gal(b1-4)GlcNAc(b1-2)[Gal(b1-4)GlcNAc(b1-4)]Man(a1-3)[GlcNAc(b1-4)][Gal(b1-4)GlcNAc(b1-2)Man(a1-6)]Man(b1-4)GlcNAc(b1-4)GlcNAc
# Procedure, shortened: as §1
# [36] = target: Gal(b1-4)GlcNAc(b1-2)[Gal(b1-4)GlcNAc(b1-4)]Man(a1-3)[GlcNAc(b1-4)][Gal(b1-4)GlcNAc(b1-2)[Gal(b1-4)GlcNAc(b1-6)]Man(a1-6)]Man(b1-4)GlcNAc(b1-4)GlcNAc
# Procedure, shortened: as §1
# [37] = target: Gal(b1-4)GlcNAc(b1-2)[Gal(b1-4)GlcNAc(b1-6)]Man(a1-6)[Gal(b1-4)GlcNAc(b1-2)Man(a1-3)]Man(b1-4)GlcNAc(b1-4)GlcNAc
# Procedure, shortened: as §1
binder,measurement,setting,value
"PVL (Psathyrella velutina), Q309D1_9AGAR (protein) MSVVVISQALPVPTRIPGVADLVGFGNGGVYIIRNSLLIQVVKVINNFGYDAGGWRVEKHVRLLADTTGDNQPDVVGFGENGVWISTNNGNNTFVDPPKMVLANFAYAAGGWRVEKHIRFMADLRKTGRADIVGFGDGGIYISRNNGGGQFAPAQLALNNFGYAQGWRLDRHLRFLADVTGDGLLDVVGFGENQVYIARNSGNGTFQPAQAVVNNFCIGAGGWTISAHPRVVADLTGDRKADILGFGVAGVYTSLNNGNGTFGAVNLVLKDFGVNSGWRVEKHVRCVSSLTNKKVGDIIGFGDAGVYVALNNGNGTFGPVKRVIDNFGYNQGWRVDKHPRFVVDLTGDGCADIVGFGENSVWACMNKGDGTFGPIMKLIDDMTVSKGWTLQKTVRYAANLYL",glycan array binding signal (z-score),[1],-0.364
same,glycan array binding signal (z-score),[2],-0.356
same,glycan array binding signal (z-score),[3],-0.361
same,glycan array binding signal (z-score),[4],-0.367
same,glycan array binding signal (z-score),[5],-0.306
same,glycan array binding signal (z-score),[6],-0.343
same,glycan array binding signal (z-score),[7],-0.367
same,glycan array binding signal (z-score),[8],-0.373
same,glycan array binding signal (z-score),[9],-0.361
same,glycan array binding signal (z-score),[10],-0.152
same,glycan array binding signal (z-score),[11],-0.361
same,glycan array binding signal (z-score),[12],-0.26
same,glycan array binding signal (z-score),[13],-0.366
same,glycan array binding signal (z-score),[14],-0.367
same,glycan array binding signal (z-score),[15],-0.373
same,glycan array binding signal (z-score),[16],-0.37
same,glycan array binding signal (z-score),[17],-0.299
same,glycan array binding signal (z-score),[18],-0.335
same,glycan array binding signal (z-score),[19],-0.292
same,glycan array binding signal (z-score),[20],-0.352
same,glycan array binding signal (z-score),[21],-0.344
same,glycan array binding signal (z-score),[22],-0.367
same,glycan array binding signal (z-score),[23],-0.369
same,glycan array binding signal (z-score),[24],-0.555
same,glycan array binding signal (z-score),[25],-0.373
same,glycan array binding signal (z-score),[26],-0.368
same,glycan array binding signal (z-score),[27],0.543
same,glycan array binding signal (z-score),[28],-0.369
same,glycan array binding signal (z-score),[29],-0.345
same,glycan array binding signal (z-score),[30],-0.366
same,glycan array binding signal (z-score),[31],0.45
same,glycan array binding signal (z-score),[32],-0.359
same,glycan array binding signal (z-score),[33],-0.356
same,glycan array binding signal (z-score),[34],-0.366
same,glycan array binding signal (z-score),[35],-0.36
same,glycan array binding signal (z-score),[36],-0.365
same,glycan array binding signal (z-score),[37],-0.369
